# From PMC4336329 (PLoS ONE, 2015)
# About 2,200 (0.71%) of roughly 310,000 compounds showed an effect of 50% or more. The effect is printed as a negative number. The list shows a part of the results.
# Molecular target: human ether-à-go-go-related gene (hERG) potassium channel (human, UniProt Q12809)
# Test: primary screen, population patch clamp on CHO cells stably expressing hERG
# human ether-à-go-go-related gene (hERG) potassium channel, sequence (Q12809 whole entry, looked up): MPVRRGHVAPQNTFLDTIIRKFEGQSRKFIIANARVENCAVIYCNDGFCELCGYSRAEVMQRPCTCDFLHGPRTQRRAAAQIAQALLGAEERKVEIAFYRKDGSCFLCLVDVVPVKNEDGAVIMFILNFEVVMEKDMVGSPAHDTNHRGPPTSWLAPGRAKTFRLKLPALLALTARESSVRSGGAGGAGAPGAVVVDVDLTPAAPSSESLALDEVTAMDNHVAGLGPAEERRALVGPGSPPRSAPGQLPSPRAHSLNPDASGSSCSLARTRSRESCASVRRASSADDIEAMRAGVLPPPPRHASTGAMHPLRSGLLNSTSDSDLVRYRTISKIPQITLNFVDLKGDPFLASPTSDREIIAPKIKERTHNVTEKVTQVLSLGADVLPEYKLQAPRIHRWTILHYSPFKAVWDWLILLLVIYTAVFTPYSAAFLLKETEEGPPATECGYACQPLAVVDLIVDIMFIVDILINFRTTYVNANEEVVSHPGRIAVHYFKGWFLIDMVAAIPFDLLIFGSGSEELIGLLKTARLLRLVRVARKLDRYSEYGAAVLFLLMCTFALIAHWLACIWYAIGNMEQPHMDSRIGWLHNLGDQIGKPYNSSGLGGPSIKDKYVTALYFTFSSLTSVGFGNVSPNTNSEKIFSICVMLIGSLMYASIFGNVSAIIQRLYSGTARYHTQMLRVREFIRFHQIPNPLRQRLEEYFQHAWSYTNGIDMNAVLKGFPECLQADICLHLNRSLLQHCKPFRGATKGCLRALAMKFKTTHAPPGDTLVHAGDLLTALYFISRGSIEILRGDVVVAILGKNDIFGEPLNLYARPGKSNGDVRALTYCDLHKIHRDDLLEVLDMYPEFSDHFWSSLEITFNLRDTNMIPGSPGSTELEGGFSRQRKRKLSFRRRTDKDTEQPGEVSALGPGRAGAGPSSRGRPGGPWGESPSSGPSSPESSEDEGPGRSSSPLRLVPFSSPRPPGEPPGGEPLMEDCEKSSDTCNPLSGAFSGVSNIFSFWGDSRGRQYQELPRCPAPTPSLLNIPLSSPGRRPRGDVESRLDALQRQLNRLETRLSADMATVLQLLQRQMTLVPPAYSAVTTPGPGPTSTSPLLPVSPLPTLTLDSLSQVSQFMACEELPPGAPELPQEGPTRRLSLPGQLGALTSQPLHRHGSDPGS
row,SMILES,"hERG current change (%, negative = inhibition) at 1uM [%]"
1,CC(=O)OCC[N+](C)(C)C.[O-][Cl+3]([O-])([O-])[O-],11.1
2,Cc1nc2ccc(NC(=S)NC3CC3)cc2nc1C,5.13
3,CC(=O)N(C(C)=O)c1ccc2nc(C)[nH]c(=O)c2c1,12.1
4,Cc1cc(C(=O)COC(=O)CCC(=O)c2ccc3c(c2)OCCO3)c(C)n1Cc1ccco1,12
5,CC(=O)NCCn1c(SCc2cc(=O)n3cc(Cl)ccc3n2)nc2ccccc2c1=O,-25.5
6,c1ccc(-c2nnc(CSc3nnc(-c4ccncc4)n3Cc3ccco3)o2)cc1,-8.88
7,COc1ccc(/C=C(/C(=O)Nc2ccccc2C(=O)N2CCCC2)c2ccccc2)cc1,8.37
8,Cc1c(NS(=O)(=O)c2ccc(NC3CCCC3)c([N+](=O)[O-])c2)c(=O)n(-c2ccccc2)n1C,7.77
9,COCC(=O)Nc1nc2n(n1)C(c1ccccc1Cl)CC(c1ccc(OC)cc1)N2 (stereo not drawn),-2.3
10,COc1ccc(C)cc1NC(=O)C(NCC1CCCO1)c1ccccc1 (stereo not drawn),-18.8
11,CN(c1ccc(-c2csc(NC(=O)C3CC(=O)N(Cc4ccco4)C3)n2)cc1)S(C)(=O)=O (stereo not drawn),3.8
12,CN(C)CCCN(Cc1ccccc1)C(=S)Nc1ccc(OC(F)F)cc1,-43.7
13,CCn1cc(C(=O)NCC(OC)OC)c(=O)c2cc(S(=O)(=O)N3CCOCC3)ccc21,12
14,COc1ccc(N(Cc2ccccc2)C(=O)CSc2nnc(Cn3nnc4ccccc43)o2)cc1,9.42
15,COCCNC(=S)N(Cc1cccnc1)Cc1ccc(OC)c(OC)c1.O=C(O)C(=O)O,11.3
16,Cc1cc(C(=O)CSc2nnc(-c3ccccc3)n2-c2ccccc2)c(C)n1-c1ncn[nH]1,16.7
17,CCc1noc(C)c1C(=O)NNC(=O)c1ccccc1F,18.1
18,c1ccc(-c2onc(-c3ccco3)c2-c2ccc3[nH]ccc3c2)cc1,13.2
19,CSCCC(NC(=O)c1cccc(S(=O)(=O)N2CCOCC2)c1)c1nc2ccccc2[nH]1 (stereo not drawn),10.6
20,COCCN1C(=O)/C(=C/c2ccc(OCc3ccc(C(=O)O)cc3)c(OC)c2)SC1=Nc1ccccc1,2.85
21,CC(=NCCN1CCNCC1)C1=C(O)CC(C)(C)CC1=O,7.57

row,SMILES,"hERG current change (%, negative = inhibition) at 1uM [%]"
1,O=c1cc(CSc2nnc(-c3ccco3)o2)c2ccccc2[nH]1,2.65
2,Cc1nc2c(-c3ccccc3)c(C)nn2c(C)c1CCC(=O)O,4.88
3,Cn1c(/N=C/c2ccc3c(c2)OCO3)nc2ccccc21,1.23
4,COc1cc(C)cc(CN2CC=C(c3ccccc3)CC2)c1O,-5.94
5,O=C(C[n+]1ccc2ccccc2c1)Nc1cc(C(F)(F)F)ccc1Cl.[Cl-],-13.1
6,Cc1nn(CCCC(=O)Nc2nccs2)c(C)c1[N+](=O)[O-],5.88
7,COC(=O)c1ccc(-n2nnnc2SC)cc1,2.86
8,CCc1cc(Br)ccc1NC(=S)NCCc1ccccc1,13.2
9,CN=C(SCc1cc2c(cc1Cl)OCO2)c1c(O)n(C)c(=O)n(C)c1=O,11.4
10,O=C(NN(C(=O)C1CC1)c1nc2ccccc2s1)C1CC1,11.5
11,CCOc1ncccc1C(=O)Nc1c(C)n(C)n(-c2ccccc2)c1=O,11.8
12,CCn1c(SCC(=O)Nc2sc3c(c2C(N)=O)CCC(C)C3)nnc1-c1ccco1 (stereo not drawn),-1.16
13,CC(=O)Nc1nc(-c2ccc([N+](=O)[O-])cc2)cs1,6.83
14,Cc1cc(S(=O)(=O)NCC(C)C)ccc1OCC(=O)NCC1CCCO1 (stereo not drawn),17
15,Cc1cccc(N2CCN(C(=O)c3ccc(N4CCCC4=O)cc3)CC2C)c1 (stereo not drawn),5.09
16,COc1ccc(/C=C/C(=O)Oc2cccc(/C=N/NC(=O)COc3c(C)cccc3C)c2)cc1,15.6
17,CCn1cc(C2=NC(c3ccccc3)CO2)c2ccccc21 (stereo not drawn),12.1
18,Cc1nc(-c2ccccn2)sc1C(=O)Nc1ccc(F)cc1,11.5
19,O=C(Nc1ccc(F)cc1)N1CCN2C(=O)c3ccccc3C12c1ccccc1 (stereo not drawn),8.35
20,CCNC(=O)O/N=C(\C)c1sc(-c2ccccc2)nc1C,5.69
21,CC(C)(C)Nc1ncnc2sc(-c3ccccc3)cc12,17.9

row,SMILES,"hERG current change (%, negative = inhibition) at 1uM [%]"
1,CCN1CCN(CCC(=O)Nc2ccc3c(c2)OCO3)CC1.Cl,15.4
2,CCc1nnc(NC(=O)c2ccc(-c3ccc(Cl)cc3)o2)s1,10.9
3,CCOc1ccc2nc(Cl)c(C3CC(c4ccccc4)=NN3C(=O)c3ccco3)cc2c1 (stereo not drawn),1.85
4,CCOc1ccc(CCNS(=O)(=O)c2cc3c(cc2C)NC(=O)CO3)cc1OCC,-1.2
5,Cc1cc(NC(=O)CCC(=O)N(Cc2ccco2)C2(C(=O)NC3CCCCC3)CCCC(C)C2)no1 (stereo not drawn),7.72
6,COc1ccc(CC(=O)NNC(=O)COc2ccc(Cl)cc2C)cc1S(=O)(=O)N1CCOCC1,0.155
7,C/C(CC(=O)Nc1cccc2c1CCCC2)=N\NC=O,17.5
8,CCS(=O)(=O)Nc1cccc(C(=C2CCCCC2)c2cnc[nH]2)c1,-5.73
9,COc1ccc(NC(=O)C(NC(C)=O)C(=O)NCc2ccccc2Cl)cc1 (stereo not drawn),6.79
10,N/C(=N\S(=O)(=O)c1cc(C(F)(F)F)cc(C(F)(F)F)c1)c1ccccc1,14.4
11,C=CCNC(=S)/N=C/c1c(O)[nH]c(=O)[nH]c1=O,-13.5
12,c1cncc(-c2nnc3n2C2(CCCCC2)Cc2ccccc2-3)c1,8.2
13,CC(=O)c1cccc(NC(=O)N2CCCC2C(=O)Nc2ccc3c(c2)OCCO3)c1 (stereo not drawn),3.96
14,CCN(CC)S(=O)(=O)c1ccc(OC)c(NC(=O)C2CC(=O)N(c3ccc4c(c3)OCCO4)C2)c1 (stereo not drawn),4.74
15,CCc1ccc(NC(=O)c2sc3nc(C)nc(N4CCN(c5ccccn5)CC4)c3c2C)cc1,10.4
16,CCOc1ccc(N2C(=O)Nc3ccc(Br)cc3C2(O)C(=O)NC(C)C)cc1 (stereo not drawn),12.9
17,COc1ccc(NS(=O)(=O)c2cc(NC(=O)c3ccc(=O)[nH]n3)ccc2C)cc1,14.6
18,COC(=O)CCCC1=CC2=CC(=O)C(C)(OC(=O)c3cccs3)C(=O)C2=CN1Cc1ccccc1 (stereo not drawn),-11.3
19,O=C(CSc1nnc(-c2cccc(Cl)c2)o1)Nc1ccc2c(c1)OCCO2,6.13
20,CCN(CC)S(=O)(=O)c1ccc(Nc2nc3ccccc3n3nnnc23)cc1,13.7
21,C=CCn1c(-c2cccc(S(=O)(=O)N(CC)CC)c2)n[nH]c1=S,5.04

row,SMILES,"hERG current change (%, negative = inhibition) at 1uM [%]"
1,N#CC(c1nc2ccccc2nc1N1CCCC1)S(=O)(=O)c1cccs1 (stereo not drawn),16.6
2,Cc1ccc(CN2CCC(N3CCC(C(=O)NCC4CCCO4)CC3)CC2)o1 (stereo not drawn),5.54
3,Cc1nc2ccc(Cl)cc2c(-c2ccccc2)c1CC(=O)O,11.6
4,C=CCn1c2ccccc2c2nnc(SC(CC)C(=O)Nc3nc(C)c(C(=O)OCC)s3)nc21 (stereo not drawn),-16.2
5,CN(C)S(=O)(=O)c1cccc(NC(=O)CSc2nnnn2-c2ccccc2)c1,6.26
6,CCn1cc([N+](=O)[O-])c(C(=O)N2N=C(c3ccc(OC)cc3OC)CC2c2ccccc2O)n1 (stereo not drawn),8.94
7,CCOc1ccc(C(=O)Nc2cccc(-c3nc4cccnc4o3)c2)cc1Cl,-2.76
8,Cc1nn(C)c(C(=O)N/N=C/c2cccc3ccccc23)c1Cl,2.16
9,COC(=O)c1cc(NC(=O)CSc2nc(C)cc(=O)[nH]2)cc(C(=O)OC)c1,8.49
10,O=S(=O)(c1cc(Cl)ccc1Cl)N1CCN(Cc2ccc3c(c2)OCO3)CC1,11.7
11,CCCn1c(=N)c(C(=O)NCC2CCCO2)cc2c(=O)n3cccc(C)c3nc21 (stereo not drawn),-78.3
12,CC(=O)NCC(=O)OC(C)C(=O)Nc1ccc(C(C)=O)cc1 (stereo not drawn),-3.54
13,Cc1cc(C)cc(-n2cc(C(=O)O)c(=O)cc2C)c1,-10.2
14,O=C(Nc1ccc2oc(-c3ccc4ccccc4c3)nc2c1)c1ccc2c(c1)OCCO2,16.3
15,O=C(NCCc1ccc(Cl)cc1)C12CC3CC(CC(O)(C3)C1)C2,14.1
16,CCN1CCN(S(=O)(=O)c2c(C)[nH]c(C)c2C(=O)N2CCCCC2)CC1,21.7
17,CCOc1cc2c(cc1OCC)-n1cccc1C(c1ccc(C)cc1C)NC2.Cl (stereo not drawn),16.2
18,Fc1ccc(-c2c[nH]c(=S)n2Cc2ccccc2)cc1,4.75
19,O=C(Nc1nc2ccccc2s1)Nc1ccc(F)cc1F,14.9
20,O=C(c1cc(C(=O)NCc2ccccc2)c(=O)n(Cc2ccccc2)c1)c1cc(Cl)ccc1O,7.52
21,COc1ccc(NS(=O)(=O)c2ccc(C)c(C(=O)N3CCCCCCC3)c2)cc1,-7.93
